Measured values taken from article PMC9287172, “Molecular basis for the regulation of human glycogen synthase by phosphorylation and glucose-6-phosphate” (Nature Structural & Molecular Biology, 2022).
These are yes or no findings as the source states them, for the method shown. Some results given as binding are weak or reduced against the parent protein; the word gives no strength. Sequences can lack the tags named with a protein.

T1: full-length human GYS1 with N-terminal His6-tag (FastBac-Dual construct) (human) (UniProt P13807)
T1 sequence (chain, heterogeneous phosphorylation (denaturing mass spectrometry)): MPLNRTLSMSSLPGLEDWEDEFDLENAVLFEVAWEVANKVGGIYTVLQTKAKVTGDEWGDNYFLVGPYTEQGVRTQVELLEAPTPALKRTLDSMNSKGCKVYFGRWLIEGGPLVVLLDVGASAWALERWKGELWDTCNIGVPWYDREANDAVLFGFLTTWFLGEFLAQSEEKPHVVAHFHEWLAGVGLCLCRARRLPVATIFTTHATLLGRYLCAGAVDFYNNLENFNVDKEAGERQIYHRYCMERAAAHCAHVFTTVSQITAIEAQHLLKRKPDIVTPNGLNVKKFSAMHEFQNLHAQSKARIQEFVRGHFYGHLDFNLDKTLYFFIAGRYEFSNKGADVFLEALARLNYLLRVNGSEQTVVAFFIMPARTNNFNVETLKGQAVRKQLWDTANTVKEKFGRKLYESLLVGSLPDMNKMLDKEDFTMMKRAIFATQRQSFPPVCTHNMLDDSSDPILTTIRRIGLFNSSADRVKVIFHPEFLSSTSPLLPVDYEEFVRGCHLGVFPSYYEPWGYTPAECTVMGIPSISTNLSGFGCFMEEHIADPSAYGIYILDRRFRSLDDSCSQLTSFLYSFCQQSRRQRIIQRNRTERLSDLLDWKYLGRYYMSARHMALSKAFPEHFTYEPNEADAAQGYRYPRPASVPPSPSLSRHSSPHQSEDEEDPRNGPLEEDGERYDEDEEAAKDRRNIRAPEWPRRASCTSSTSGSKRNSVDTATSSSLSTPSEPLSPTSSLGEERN

T2: human PTG (PPP1R3C) aa 134–259, CBM21 domain construct, His-tagged (human) (UniProt Q9UQK1)
T2 sequence: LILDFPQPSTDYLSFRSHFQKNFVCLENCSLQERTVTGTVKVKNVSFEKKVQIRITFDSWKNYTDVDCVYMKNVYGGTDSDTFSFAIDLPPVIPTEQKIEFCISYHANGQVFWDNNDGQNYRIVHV

B1: full-length human GYG1 (GYG1^FL), glucosylated (enzyme, UniProt P46976-1 1-350)
chain: MTDQAFVTLTTNDAYAKGALVLGSSLKQHRTTRRLVVLATPQVSDSMRKVLETVFDEVIMVDVLDSGDSAHLTLMKRPELGVTLTKLHCWSLTQYSKCVFMDADTLVLANIDDLFDREELSAAPDPGWPDCFNSGVFVYQPSVETYNQLLHLASEQGSFDGGDQGILNTFFSSWATTDIRKHLPFIYNLSSISIYSYLPAFKVFGASAKVVHFLGRVKPWNYTYDPKTKSVKSEAHDPNMTHPEFLILWWNIFTTNVLPLLQQFGLVKDTCSYVNVLSDLVYTLAFSCGFCRKEDVSGAISHLSLGEIPAMAQPFVSSEERKERWEQGQADYMGADSFDNIKRKLDTYLQ
modifications: heterogeneous glucosylation (glucose chain attached to GYG1)
B2: full-length human GYG1^p.Y195F (nonglucosylated) (enzyme, UniProt P46976-1 1-350)
chain: MTDQAFVTLTTNDAYAKGALVLGSSLKQHRTTRRLVVLATPQVSDSMRKVLETVFDEVIMVDVLDSGDSAHLTLMKRPELGVTLTKLHCWSLTQYSKCVFMDADTLVLANIDDLFDREELSAAPDPGWPDCFNSGVFVYQPSVETYNQLLHLASEQGSFDGGDQGILNTFFSSWATTDIRKHLPFIYNLSSISIFSYLPAFKVFGASAKVVHFLGRVKPWNYTYDPKTKSVKSEAHDPNMTHPEFLILWWNIFTTNVLPLLQQFGLVKDTCSYVNVLSDLVYTLAFSCGFCRKEDVSGAISHLSLGEIPAMAQPFVSSEERKERWEQGQADYMGADSFDNIKRKLDTYLQ
B3: GYS1–GYG1^ΔCD complex (human GYS1 aa 1–737 with GYG1 aa 294–350) (complex, UniProt P13807 1-737; P46976-1 294-350)
chain 1: MPLNRTLSMSSLPGLEDWEDEFDLENAVLFEVAWEVANKVGGIYTVLQTKAKVTGDEWGDNYFLVGPYTEQGVRTQVELLEAPTPALKRTLDSMNSKGCKVYFGRWLIEGGPLVVLLDVGASAWALERWKGELWDTCNIGVPWYDREANDAVLFGFLTTWFLGEFLAQSEEKPHVVAHFHEWLAGVGLCLCRARRLPVATIFTTHATLLGRYLCAGAVDFYNNLENFNVDKEAGERQIYHRYCMERAAAHCAHVFTTVSQITAIEAQHLLKRKPDIVTPNGLNVKKFSAMHEFQNLHAQSKARIQEFVRGHFYGHLDFNLDKTLYFFIAGRYEFSNKGADVFLEALARLNYLLRVNGSEQTVVAFFIMPARTNNFNVETLKGQAVRKQLWDTANTVKEKFGRKLYESLLVGSLPDMNKMLDKEDFTMMKRAIFATQRQSFPPVCTHNMLDDSSDPILTTIRRIGLFNSSADRVKVIFHPEFLSSTSPLLPVDYEEFVRGCHLGVFPSYYEPWGYTPAECTVMGIPSISTNLSGFGCFMEEHIADPSAYGIYILDRRFRSLDDSCSQLTSFLYSFCQQSRRQRIIQRNRTERLSDLLDWKYLGRYYMSARHMALSKAFPEHFTYEPNEADAAQGYRYPRPASVPPSPSLSRHSSPHQSEDEEDPRNGPLEEDGERYDEDEEAAKDRRNIRAPEWPRRASCTSSTSGSKRNSVDTATSSSLSTPSEPLSPTSSLGEERN
chain 2: EDVSGAISHLSLGEIPAMAQPFVSSEERKERWEQGQADYMGADSFDNIKRKLDTYLQ
modifications: multiply phosphorylated
B4: GYS1–GYG1^p.Y195F complex (full-length human GYS1 with full-length nonglucosylated GYG1 Y195F) (complex, UniProt P13807 1-737; P46976-1 1-350)
chain 1: MPLNRTLSMSSLPGLEDWEDEFDLENAVLFEVAWEVANKVGGIYTVLQTKAKVTGDEWGDNYFLVGPYTEQGVRTQVELLEAPTPALKRTLDSMNSKGCKVYFGRWLIEGGPLVVLLDVGASAWALERWKGELWDTCNIGVPWYDREANDAVLFGFLTTWFLGEFLAQSEEKPHVVAHFHEWLAGVGLCLCRARRLPVATIFTTHATLLGRYLCAGAVDFYNNLENFNVDKEAGERQIYHRYCMERAAAHCAHVFTTVSQITAIEAQHLLKRKPDIVTPNGLNVKKFSAMHEFQNLHAQSKARIQEFVRGHFYGHLDFNLDKTLYFFIAGRYEFSNKGADVFLEALARLNYLLRVNGSEQTVVAFFIMPARTNNFNVETLKGQAVRKQLWDTANTVKEKFGRKLYESLLVGSLPDMNKMLDKEDFTMMKRAIFATQRQSFPPVCTHNMLDDSSDPILTTIRRIGLFNSSADRVKVIFHPEFLSSTSPLLPVDYEEFVRGCHLGVFPSYYEPWGYTPAECTVMGIPSISTNLSGFGCFMEEHIADPSAYGIYILDRRFRSLDDSCSQLTSFLYSFCQQSRRQRIIQRNRTERLSDLLDWKYLGRYYMSARHMALSKAFPEHFTYEPNEADAAQGYRYPRPASVPPSPSLSRHSSPHQSEDEEDPRNGPLEEDGERYDEDEEAAKDRRNIRAPEWPRRASCTSSTSGSKRNSVDTATSSSLSTPSEPLSPTSSLGEERN
chain 2: MTDQAFVTLTTNDAYAKGALVLGSSLKQHRTTRRLVVLATPQVSDSMRKVLETVFDEVIMVDVLDSGDSAHLTLMKRPELGVTLTKLHCWSLTQYSKCVFMDADTLVLANIDDLFDREELSAAPDPGWPDCFNSGVFVYQPSVETYNQLLHLASEQGSFDGGDQGILNTFFSSWATTDIRKHLPFIYNLSSISIFSYLPAFKVFGASAKVVHFLGRVKPWNYTYDPKTKSVKSEAHDPNMTHPEFLILWWNIFTTNVLPLLQQFGLVKDTCSYVNVLSDLVYTLAFSCGFCRKEDVSGAISHLSLGEIPAMAQPFVSSEERKERWEQGQADYMGADSFDNIKRKLDTYLQ
modifications: phosphorylated as purified

How the values were obtained:
[1] = target: T1, full-length human GYS1 with N-terminal His6-tag (FastBac-Dual construct) (human); test: co-purification (Ni-Sepharose affinity and size-exclusion chromatography); GYS1 (N-terminal His6) and GYG1 coexpressed in Sf9 cells; lysis buffer 50 mM sodium phosphate pH 7.5, 500 mM NaCl, 5% glycerol, 0.5 mM TCEP, 10 mM imidazole; Ni-Sepharose, Superose 6; SDS-PAGE
[2] = target: T2, human PTG (PPP1R3C) aa 134–259, CBM21 domain construct, His-tagged (human); test: condition: 0.25 mg ml^-1 complex with 1.0 mg ml^-1 His-PPP1R3C; pull-down; His-PPP1R3C (1.0 mg ml^-1) preincubated with GYS1–GYG1 complex (0.25 mg ml^-1) or GYG1 (0.5 mg ml^-1) for 30 min at 4 °C, captured on Talon resin in 25 mM HEPES pH 7.5, 100 mM NaCl, 1 mM TCEP, 0.2% Tween-20; wash with 10 mM imidazole; SDS-PAGE, Coomassie; both purified
[3] = target: T2, human PTG (PPP1R3C) aa 134–259, CBM21 domain construct, His-tagged (human); test: native gel or EMSA; Blue-Native PAGE; His-PPP1R3C, GYS1–GYG1 complex and/or GYG1 in 25 mM HEPES pH 7.5, 200 mM NaCl, 1.0 mM TCEP, preincubated 5 min at room temperature; both purified

Row | Binder | binding [1] | binding [2] | binding [3]
1 | B1 | binds | – | –
2 | B2 | binds | – | –
3 | B3 | – | no binding | no binding
4 | B4 | – | no binding | no binding
